# In PubChem BioAssay AID686970 (National Center for Advancing Translational Sciences (NCATS), 2013):
# Screen size: about 360,000 compounds; about 6,000 (1.7%) were called active. Inconclusive means that the source gave no clear call. Such entries were picked first, then a sample of the others. The call rests on the fitted dose curve; in most records, active means well fitted cell-killing curve with a large enough effect; inconclusive means small, poorly fitted or top-dose-only effect, or effect the other way; inactive means flat fitted curve, though single readings scatter. No potency is given beside an inconclusive call; the fits are too rough.
# Assay: qHTS for induction of synthetic lethality in tumor cells producing 2HG: qHTS for the HT-1080-NT fibrosarcoma cell line;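 further: NT is the 2HG producing partner of a matched IDH1 knockdown line; nearly all actives have a fitted effect of over 55% in size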;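 on activity, negative = less viability: 0% = DMSO-treated cells and -100% = media-only wells without cells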
# Details: HT-1080-NT fibrosarcoma viability, CellTiter-Glo ATP luminescence, 48 h; activity, negative = less viability: at 46.1 µM (top of the series) unless noted
# Method in brief: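 Viability by CellTiter-Glo luminescence after 48 h compound exposure at 37C of HT-1080-NT cells (750/well, RPMI, 5% FBS). % activity scaled between DMSO wells and medium-only wells, then curve-fitted and categorized by curve class.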
# Potency means the concentration at half of the fitted maximal effect; tags describe the fitted curve by direction and shape.
Compound,"activity, negative = less viability",Potency
COc1ccc(-c2nnc(SCC(=O)NC3CCCCC3)n2N)cc1,inactive: 0.157%,
Cc1cccc(C)c1OCC(O)CNC(C)c1ccccc1 (centres undefined),,"inconclusive [cytotoxic, full curve]"
Cc1ccccc1OCC(=O)N(Cc1nc(-c2ccccc2)no1)C(C)C,,"inconclusive [cytotoxic, single point]"
CC(=O)c1cn(CC(=O)NCc2ccc3c(c2)OCO3)c2ccccc12,,"inconclusive [cytotoxic, single point]"
CC1(C)CCC[C@]2(C)[C@H]3Cc4cc(O)ccc4O[C@]3(C)CC[C@@H]12,,"inconclusive [cytotoxic, single point]"
CCN(CC)CCn1c(NCc2nc3ccccc3n2Cc2ccccc2)nc2ccccc21,,"inconclusive [cytotoxic, single point]"
COc1cc(/C=N/NC(N)=S)ccc1OCC(=O)Nc1ccc(C)cc1,inactive: -12.1%,
CC(=O)Nc1ccc(NC2CCCCC2NS(=O)(=O)c2ccc(Cl)cc2)cc1 (centres undefined),inactive: -0.596%,
OC(COc1ccccc1)Cn1c2ccccc2c2ccccc21 (centres undefined),,"inconclusive [cytotoxic, single point]"
COc1ccc(N2C(=O)c3ccccc3NC2c2ccc(OC)c(CSc3ccccn3)c2)cc1 (centres undefined),,"inconclusive [cytotoxic, single point]"
CCSc1nc(O)cc(=O)[nH]1,inactive: 0.954%,
Cc1ccc(Oc2ccc(-c3nc(N)nc(N)n3)cc2)cc1C,,"inconclusive [cytotoxic, single point]"
COc1ccc(Cc2nnc(N/N=C/c3ccc(Br)cc3)[nH]c2=O)cc1OC,,"inconclusive [cytotoxic, single point]"
CN(C(=O)COC(=O)/C=C/c1cn(-c2ccccc2)nc1-c1ccc2c(c1)OCCO2)C1CCS(=O)(=O)C1 (centres undefined),inactive: -2.78%,
Cn1ncc2c(N3CCN(c4ccc(Cl)c(Cl)c4)CC3)ncnc21,inconclusive: 1.09% [cytotoxic],
O=C(NCc1ccc(S(=O)(=O)NC2CCCCC2)s1)c1ccccc1,inactive: -7.08%,
COc1ccc(CNC(=O)CN(C)Cc2ccc(SC)cc2)cc1,inactive: -19.1%,
COCOc1cccc(CN2CCC2(C)C(=O)Nc2ccc3c(c2)OCO3)c1 (centres undefined),inactive: -0.484%,
CC(=O)c1c(OC(=O)c2ccc(C)cc2)c2ccccc2n1C,,"inconclusive [rising, partial curve]"
C/C(=N\NS(=O)(=O)c1ccc(C)c([N+](=O)[O-])c1)c1ccc2c(c1)OCO2,,"inconclusive [rising, single point]"
CCOC(=O)C1CCN(CCC(=O)Nc2ccc(Br)c(C)c2)CC1,,"inconclusive [cytotoxic, partial curve]"
Cc1c(NC(=O)CSc2cccc3cccnc23)c(=O)n(-c2ccccc2)n1C,,"inconclusive [cytotoxic, single point]"

Compound,"activity, negative = less viability",Potency
O=C1N[C@@H](c2ccccc2)COC(=O)[C@H](Cc2ccc(F)cc2)CC/C=C/C[C@H]1CC(=O)N(CCO)Cc1ccccc1,,"inconclusive [cytotoxic, single point]"
COc1ccc2nc(C)cc(Nc3ccc(C)cc3)c2c1,,"inconclusive [cytotoxic, single point]"
COC(=O)c1cccc(Nc2ncnc3sccc23)c1,inactive: -8.1%,
CCCC(=O)OCCNc1cc(Sc2nccn2C)c2nonc2c1[N+](=O)[O-],,"inconclusive [cytotoxic, single point]"
COc1ccc2[nH]c(CN3CCC(CO)(CCOc4ccccc4)CC3)c(C)c2c1,,active: 14.6 µM
COc1ccc(Cl)cc1C(=O)NNC(=S)NC(=O)c1cc(-c2ccc(Cl)cc2)nc2ccccc12,,"inconclusive [cytotoxic, full curve, poor fit]"
Cc1cc(C(=O)N/N=C/c2cc(Br)cc([N+](=O)[O-])c2O)c2ccccc2n1,,"inconclusive [cytotoxic, single point]"
Cc1ccccc1-c1ccc(CN2C(C(C)C)C(=O)N(Cc3cn(CCC4OCCO4)nn3)CCS2(=O)=O)cc1 (centres undefined),,"inconclusive [cytotoxic, single point]"
Cc1cc2cc(CN(CCN(C)C)C(=S)NCc3ccco3)c(=O)[nH]c2cc1C,,"inconclusive [cytotoxic, partial curve]"
CC1=C(C(=O)Nc2ccc(CC(=O)NCc3ccccc3C)cc2)SCCO1,,"inconclusive [cytotoxic, single point]"
COc1cc(NC2CCCCC2O)c2nc(-c3ccc(Cl)cc3)ccc2c1 (centres undefined),,"inconclusive [cytotoxic, single point]"
CC(C)Nc1nc(NCCOc2ccccc2Cl)c2sc(-c3ccccc3)cc2n1,,"inconclusive [cytotoxic, single point]"
O=C(OCc1ccccc1)C1CCN(S(=O)(=O)c2cccs2)CC1,inactive: 12.5%,
CCC(=O)Nc1nonc1-c1nc2ccccc2n1Cc1cccc2ccccc12,,"inconclusive [cytotoxic, full curve]"
COc1cc2ccccc2cc1C(=O)NC(=S)Nc1cccc(C(=O)O)c1,inconclusive: 7.62%,
O=c1cc(CCl)[nH]c2nc3ccccc3n12,,active: 18.4 µM
O=C(CSCC(=O)N1CCCCC1)Nc1nc(-c2cccs2)cs1,inactive: 2.73%,
COc1cc2c(cc1NC(=O)/C=C/c1ccccc1)oc1ccccc12,,"inconclusive [cytotoxic, single point]"
CC(=O)N1CCC(C(=O)OCc2ccccc2F)(c2ccccc2)CC1,inconclusive: -37.8% [cytotoxic],
COc1ccc(-c2[nH]c(-c3cc(OC)c4c(c3)OCO4)nc2-c2ccccc2)cc1,,"inconclusive [cytotoxic, single point]"
COc1cccc(/C=C/C(=O)Nc2ccc(C(=O)Nc3cccc(S(N)(=O)=O)c3)cc2)c1OC,,"inconclusive [cytotoxic, full curve]"
Cc1ccc(COc2ccc(CNCCCN3CCCCCC3=O)cc2)cc1,inactive: -28.6%,
